First the molecules themselves.
B1: chr1:85021069:85021276:-|CDS|ENSG00000055732|control|control|control (ssRNA)
RNA: GGGAGUUCUACAGUCCGACGAUCGAUAUGUUUGCCACGUUUGCAAAAAUGCAGCAAAAAAGUUACUUAGUCUGGCUGUUUAGUAGAAUUUACCUCUACUCAUUCAUCAGCCUCUUUAUAUAUAUGAUUUUAAGUCUUUUCAUUCAACAGAGGAUUGAGCAUCA
B2: chr2:200490383:200490484:-|CDS|ENSG00000155729|msi1|FALSE|unique (ssRNA)
RNA: GGGAGUUCUACAGUCCGACGAUCUCUCCAGCCAGUGCCAUCCAGACGUCGGCUGGGGCGACAGCAAACCGGUUUCAAAGUGGUAGCCGCAGAAAGGCAGCUCAGCGCUCUGCACCUUCCAGAGCCACGGCCCUGGUGGGCACGCAACAGAGGAUUGAGCAUCA
B3: chr10:62806226:62806343:+|3pUTR|ENSG00000181915|unk|total|mutant (ssRNA)
RNA: GGGAGUUCUACAGUCCGACGAUCCUACCCCUCCGUUAAACCGGGUUUAUUUUCCACUCAUGCCCUUAUGCCUUUUUUUCUUACCGUUUUUUAACUUAUUGACUGUGCAUGACCCAGUGGUUUGAAUUGUUUUCCGUUCAAGUCCAACAGAGGAUUGAGCAUCA
B4: ENSG00000124766:be:win_1251|CDS|ENSG00000124766|bound_else_gene|NA|bound_elsewhere_windowed (ssRNA)
RNA: GGGAGUUCUACAGUCCGACGAUCGUCCCUGGGCAGCUUCAGUUCGUCGUCGGCGCUCGACCGGGACCUGGAUUUUAACUUCGAGCCCGGCUCCGGCUCGCACUUCGAGUUCCCGGACUACUGCACGCCCGAGGUGAGCGAGAUCAACAGAGGAUUGAGCAUCA
B5: chr8:96261867:96261970:+|5pUTR|ENSG00000156471|unk|FALSE|bound_elsewhere (ssRNA)
RNA: GGGAGUUCUACAGUCCGACGAUCUCCUUCCCUCUGCUCCCAGCCUUUGCUGGGCGCCAGACCCGGCUUUGCCGUCCGGCUAUUAGCCUACUGUGGCUAGUCACCCCCGGGGUCCCGGCCUUCUCGGGCUGGGGCCGCCGCCACCAACAGAGGAUUGAGCAUCA
B6: chrX:21994482:21994713:+|3pUTR|ENSG00000102172|msi1|FALSE|unique (ssRNA)
RNA: GGGAGUUCUACAGUCCGACGAUCCAGCUGAAGGAUGGUUAGACAGCACAGCGAAGACUGCUAAAUGCACUGACCCCCCCCAUUAGAAUGUGAUUUUUGUUCCUUUUUAUUUCUCUGUGGGCUUUUGUUUUUGUUUUUGUUUUGCAACAGAGGAUUGAGCAUCA
B7: chr12:88196262:88196297:+|3pUTR|ENSG00000139324|msi1_unk|FALSE|overlapping (ssRNA)
RNA: GGGAGUUCUACAGUCCGACGAUCUGUAUACUUGUUUUUAACUUUAAAUGUAAUUUUUAAUCAGGUAAAGUUUGACACAUGUAUAGCUACAUACACACAUUUUUAAUGGUGCUCAUAUAUACUGUAUUUUUUGUUGUUUAGUUUCAACAGAGGAUUGAGCAUCA
B8: chr2:159432892:159433005:-|CDS|ENSG00000123636|unk|FALSE|unique (ssRNA)
RNA: GGGAGUUCUACAGUCCGACGAUCACACCUGUAAUGCCCUCUGCCUCUCCCAUCCUGCAUAGUCAAGGGAAGGAAAAAGCAGUUAGCAAUAAUGUAAACCCAGUAAAAACACAGCAUCACUCCCAUCCUGCAAAAUCUUUAGUGCAACAGAGGAUUGAGCAUCA
B9: ENSG00000107863:be:win_5451|CDS|ENSG00000107863|bound_else_gene|NA|bound_elsewhere_windowed (ssRNA)
RNA: GGGAGUUCUACAGUCCGACGAUCUUUUUGGAAAGUGCAUGAGCAGAGCGGGGAGAGAGAAUCUGAACUUUCAGCUGUAAACCGGUUAAAACCAAAAUGCUCAGCCCAGGACCUUUCCAUCUCAGACUGGCUGGCCAGGGAACGCAACAGAGGAUUGAGCAUCA
B10: chr2:85649053:85649154:+|3pUTR|ENSG00000168883|unk|FALSE|unique (ssRNA)
RNA: GGGAGUUCUACAGUCCGACGAUCUUCAGCAGGGCAGAACCCUUCUCCAGAUGUGUGUAACUUAUGUCUUGAGUAUCUGGGAGUAGUUGAAGAACAGAUAAUUCCUUCCAAACAUCAAGCCUUGGGAUUCUUGGAGCAAGCAGACAACAGAGGAUUGAGCAUCA
B11: chr12:49323620:49323721:+|CDS|ENSG00000135451|unk|total|mutant (ssRNA)
RNA: GGGAGUUCUACAGUCCGACGAUCAUCAUGACCACCCGGCAAGCCACGAAGGAUCCCCUCCUCCGGGGUGUAUCUCCUACCCCCCGCAAGAUUCCGGUACGCUCUCAGAAACGCACGCCUUUCCCCACUGUUACAUCGUGCGCCCAACAGAGGAUUGAGCAUCA
B12: chr20:23564731:23564947:-|three_prime_utr|ENSG00000101435|control|control|control (ssRNA)
RNA: GGGAGUUCUACAGUCCGACGAUCAGCUUUGGACUUGUUUGUUAUCCUAUUUUGCAUGUGUUUGAGAUCUCAGAUCAGUGUUUUAGAAAAUCCACACAUCUUGAGCCUAAUCAUGUAGUGUAGAUCAUUAAACAUCAGCAUUUUCAACAGAGGAUUGAGCAUCA
B13: chr7:123692404:123692516:-|CDS|ENSG00000106299|unk|total|mutant (ssRNA)
RNA: GGGAGUUCUACAGUCCGACGAUCCCUGCCUUCUGAUGGGGACCAUCAGGUUCCAACUACUGCAGGAAACAAAGCAGCUCUUUCCGAUCAAAUCCGAGAGGGUGCUCAGCUAAAAAAAGUGGAGCAGAACAGUCGGCCAGUGUCCAACAGAGGAUUGAGCAUCA
B14: chr8:17299120:17299221:-|3pUTR|ENSG00000003987|unk|FALSE|unique (ssRNA)
RNA: GGGAGUUCUACAGUCCGACGAUCUCCUCAUUAUUUAAAAAUGCUAAACCUUGUAUCUCACUUUUUCUCUAACACUGAUUUAAUAGCUAACGAGGUAGAAGCAACAUUCAUUCUCCUGGUCUUACAUAUGAAUUUAAGUAUCAGCAACAGAGGAUUGAGCAUCA
B15: chr11:61866713:61866887:+|3pUTR|ENSG00000134824|msi1|total|mutant (ssRNA)
RNA: GGGAGUUCUACAGUCCGACGAUCCUCUCCUGUCUGAACCUGCCCUUACUGUGUUUAACCUGUUGCUCCAGGAUGCAUUCUGACCGGAGGGGGCGGCAGGGCUGGGCCUUGUGACAAUCUGCCUUUCACCACAUGGCCUUGCCUCAACAGAGGAUUGAGCAUCA
B16: chr8:94832020:94832135:+|CDS|ENSG00000164941|unk|FALSE|unique (ssRNA)
RNA: GGGAGUUCUACAGUCCGACGAUCGGUACUAGAAGCAGCCCUAAAAUUAAACAAGGAUCUUUAUGUCCAUACGAUGAGAACUCUAGAUUUAUUGGCCAUGGAACCAGGCAUGGUAAAUGGAGAAACUGAGAGUUCUACUGCUGGCAACAGAGGAUUGAGCAUCA
B17: chr1:179108573:179108674:-|CDS|ENSG00000143322|unk|FALSE|bound_elsewhere (ssRNA)
RNA: GGGAGUUCUACAGUCCGACGAUCAGCCAAGUUAUUGCCCAGAGGAGCCACAGCUCUUCCUCUCAGAACACCCUCUGGGGAUCUAGCCAUUACAGAGAAGGACCCUCCAGGGGUGGGAGUGGCUGGAGUGGCAGCUGCCCCCAACAACAGAGGAUUGAGCAUCA
B18: ENSG00000070961:be:win_301|CDS|ENSG00000070961|bound_else_gene|NA|bound_elsewhere_windowed (ssRNA)
RNA: GGGAGUUCUACAGUCCGACGAUCUUAGUAUGGGAAGCAUUACAAGAUGUCACUUUAAUUAUAUUAGAAAUUGCAGCCAUAGUAUCAUUGGGCCUUUCUUUUUAUCAGCCUCCAGAAGGGGAUAAUGCACUUUGUGGAGAAGUUCAACAGAGGAUUGAGCAUCA
B19: chr2:25738620:25738721:-|3pUTR|ENSG00000143970|unk|total|mutant (ssRNA)
RNA: GGGAGUUCUACAGUCCGACGAUCAUACAUAUUAAUGACCUGACAGUUAACAUUCUGUUGUUUAUUAUUGCCUUUCUCCACCUCCGAGAGCCAUAAAUAACUCUCUGGUGAAGUGAUUUGCUAUAAUGGGGGUGAGGAGUGGGGCAACAGAGGAUUGAGCAUCA
B20: chr10:73916565:73916770:+|3pUTR|ENSG00000122861|msi1|FALSE|unique (ssRNA)
RNA: GGGAGUUCUACAGUCCGACGAUCCUGGUUGUCAUUUUUGCAGUAGAGUCAUCUCCAUCAGCUGUAAGAAGAGACUGGGAAGAUAGGCUCUGCACAGAUGGAUUUGCCUGUGCCACCCACCAGGGCGAACGACAAUAGCUUUACCAACAGAGGAUUGAGCAUCA
B21: ENSG00000198589:be:win_4451|CDS|ENSG00000198589|bound_else_gene|NA|bound_elsewhere_windowed (ssRNA)
RNA: GGGAGUUCUACAGUCCGACGAUCCUGCAGCGAAGAGCCCAGUGGACAUUGUGACUGGCGGUAUAUCUCCAGUAAGAGAUCUUGACAGGCUUCUACAGGACAUGGAUAUUAAUCGGCUUAGGGCAGUUGUUUUCAGAGACAUAGCAACAGAGGAUUGAGCAUCA
B22: chr1:173887777:173887878:+|3pUTR|ENSG00000185278|unk|FALSE|unique (ssRNA)
RNA: GGGAGUUCUACAGUCCGACGAUCAAAGAGAUUUGGCAGAGGGACAGGUUGUACCUGCACUGGUGAACCAUCUGUGAGAAUGUUAGUCAUGUGCUCCUUUCCUGAGAUUGCUUUGUGGUAUGUGAAAAGGUGGGUAGAAAAGAACAACAGAGGAUUGAGCAUCA

22 molecules from publication PMC12136788 can be followed below.

The other results are listed elsewhere or left out.

This assay concerns the target MSI1 full-length (mouse, UniProt Q61474 1-362). Description: nsRBNS (natural sequence RNA bind-n-seq); RBNS binding buffer (assumed for nsRBNS): 25 mM Tris pH 7.5, 150 mM KCl, 3 mM MgCl2, 0.01% Triton X-100, 500 ug/ml BSA, 20 U/ml SUPERase-In, 4 C; UNK is unkempt and MSI1 is Musashi-1; names of the RNAs are library labels; protein concentration not given here; high values mean tight binding.
UniProt Q61474, sequence (Q61474 whole entry): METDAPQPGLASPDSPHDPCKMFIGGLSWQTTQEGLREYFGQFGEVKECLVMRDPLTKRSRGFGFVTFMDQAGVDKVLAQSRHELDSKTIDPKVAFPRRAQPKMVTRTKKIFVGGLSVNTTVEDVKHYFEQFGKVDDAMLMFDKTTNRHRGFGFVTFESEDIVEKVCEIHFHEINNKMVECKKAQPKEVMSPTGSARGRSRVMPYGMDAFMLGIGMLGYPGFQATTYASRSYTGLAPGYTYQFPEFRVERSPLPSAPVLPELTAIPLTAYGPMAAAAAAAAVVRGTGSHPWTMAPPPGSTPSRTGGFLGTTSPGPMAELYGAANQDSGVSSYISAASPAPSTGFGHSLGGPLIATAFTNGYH
Consider B1, for which the binding signal is 3.09 enrichment R.

Turning to B2, the binding signal amounted to 0.345 enrichment R.

On to B3, for which the binding signal is 1.31 enrichment R.

Regarding B4, the binding signal came out at 0.385 enrichment R.

Turning to B5, the binding signal turned out to be 0.359 enrichment R.

In turn, B6 displayed a binding signal of 0.69 enrichment R.

In turn, B7 yielded a binding signal of 8.28 enrichment R.

Take B8: the binding signal was 2.72 enrichment R.

With B9, the binding signal stood at 0.474 enrichment R.

In the case of B10, the binding signal turned out to be 0.412 enrichment R.

In turn, B11 showed a binding signal of 0.676 enrichment R.

The molecule B12 registered a binding signal of 0.779 enrichment R.

B13 registered a binding signal of 0.31 enrichment R.

The molecule B14 yielded a binding signal of 1.35 enrichment R.

B15 displayed a binding signal of 0.533 enrichment R.

B16 yielded a binding signal of 0.632 enrichment R.

B17: the binding signal was 0.509 enrichment R.

In the case of B18, the binding signal was 9.77 enrichment R.

Molecule B19 returned a binding signal of 0.501 enrichment R.

B20 had a binding signal of 0.545 enrichment R.

Molecule B21 showed a binding signal of 0.53 enrichment R.

B22 came in with a binding signal of 0.807 enrichment R.
